The other results are listed elsewhere or left out.
The compounds below were run on HepG2 (assay: cytotoxicity call (relative viability < 0.9)). Details: 10 µM.
`Cc1noc(C)c1S(=O)(=O)N(C)C[C@H]1OCCCC[C@@H](C)Oc2ccc(NS(C)(=O)=O)cc2C(=O)N([C@@H](C)CO)C[C@@H]1C` was tested, and the cytotoxicity call was “inactive”. With `C[C@@H]1CN([C@H](C)CO)C(=O)c2c(c3ccccc3n2C)-c2ccccc2CO[C@@H]1CN(C)C(=O)[C@H](C)c1ccccc1` the cytotoxicity call was “inactive”. With `C[C@@H]1CN([C@@H](C)CO)C(=O)Cc2cc(NC(=O)CCCCCC(=O)Nc3ccccc3N)ccc2O[C@@H]1CN(C)C(=O)Nc1ccccc1` the cytotoxicity call was “inactive”. With `CCOC(=O)CC1=NC(=O)CS1` the cytotoxicity call was “inactive”. In the case of `C[C@H](CO)N1C[C@H](C)[C@H](CN(C)Cc2ccncc2)Oc2c(NC(=O)Nc3ccc(C(F)(F)F)cc3)cccc2C1=O`, the cytotoxicity call is reported as “inactive”. For `C[C@H](CO)N1C[C@H](C)[C@@H](CN(C)C(=O)Nc2ccc(C(F)(F)F)cc2)Oc2ccc(NC(=O)Nc3ccc4c(c3)OCO4)cc2CC1=O`, the cytotoxicity call was “inactive”. With `COc1ccc(NC(=O)Nc2ccc3c(c2)C(=O)N([C@@H](C)CO)C[C@@H](C)[C@H](CN(C)CC2CC2)OCCCC[C@@H](C)O3)cc1` the cytotoxicity call was “inactive”. `C[C@@H]1CN([C@H](C)CO)C(=O)c2cc(C#CC3CC3)cnc2O[C@H]1CN(C)S(=O)(=O)c1cccc(F)c1` was tested, and the cytotoxicity call was “inactive”. For `CC(CO)(CO)NS(=O)(=O)c1ccccc1`, the cytotoxicity call was “inactive”. `CC(C)[N+](C)(CCOC(=O)C1c2ccccc2Oc2ccccc21)C(C)C.[Br-]` was tested, and the cytotoxicity call was “inactive”. In the case of `C[C@@H]1CN([C@H](C)CO)C(=O)c2cc(NC(=O)Cc3cn(C)c4ccccc34)ccc2O[C@H]1CN(C)Cc1ccc(Cl)c(Cl)c1`, the cytotoxicity call is reported as “inactive”. In the case of `CC(=O)n1cc([C@H]2C=C(C(=O)N3CCCCCCC3)O[C@@H](OCc3ccc(CO)cc3)C2)c2ccccc21`, the cytotoxicity call is reported as “inactive”. With `COc1cccc(C#Cc2ccc3c(c2)O[C@@H](CN(C)S(=O)(=O)c2ccccc2F)[C@H](C)CN([C@@H](C)CO)S3(=O)=O)c1` the cytotoxicity call was “inactive”. In the case of `C[C@@H]1CCCCO[C@H](CN(C)C(=O)Nc2ccc3c(c2)OCO3)[C@H](C)CN([C@H](C)CO)C(=O)c2cc(NC(=O)C3CCCCC3)ccc2O1`, the cytotoxicity call is reported as “inactive”. With `C[N+](C)(C)CCCC[C@@H]1NC(=O)[C@H]2C[C@@H](C(=O)NCCCCCNC(=O)CS)[C@@H](c3cccc(OCCO)c3)N2C1=O` the cytotoxicity call was “inactive”. In the case of `C[C@H](CO)N1C[C@H](C)[C@@H](CN(C)Cc2ccc(C(=O)Nc3ccccc3N)cc2)Oc2ccc(NC(=O)Cn3cnnn3)cc2CC1=O`, the cytotoxicity call is reported as “inactive”. `C[C@@H]1CN([C@@H](C)CO)S(=O)(=O)c2ccc(C#CC3(O)CCCC3)cc2O[C@H]1CN(C)C(=O)Nc1ccc(F)cc1` was tested, and the cytotoxicity call was “inactive”. `C[C@@H]1CCCCO[C@@H](CN(C)C(=O)Nc2ccccc2)[C@H](C)CN([C@H](C)CO)C(=O)c2cc(NS(=O)(=O)c3ccc(Cl)cc3)ccc2O1` was tested, and the cytotoxicity call was “inactive”. For `C[C@@H]1CN([C@H](C)CO)C(=O)Cc2cc(NC(=O)CCCN(C)C)ccc2O[C@@H]1CN(C)Cc1ccc(Oc2ccccc2)cc1`, the cytotoxicity call was “active”. With `Cn1c(=O)c(=O)n(C)c2cc(S(=O)(=O)N3CCC[C@@H]3C(=O)O)ccc21` the cytotoxicity call was “inactive”. For `Cc1noc(C)c1NC(=O)Nc1ccc2c(c1)C(=O)N([C@H](C)CO)C[C@H](C)[C@H](CN(C)Cc1ccc(C(=O)O)cc1)OCCCC[C@@H](C)O2`, the cytotoxicity call was “inactive”. For `CN1C(=O)c2cc(NC(=O)c3cccs3)ccc2OC[C@H]2O[C@@H](CC(=O)NCC(F)(F)F)CC[C@@H]21`, the cytotoxicity call was “inactive”. `O=C(N[C@H]1CCCCNC1=O)c1ccco1` was tested, and the cytotoxicity call was “inactive”. In the case of `CC(C)NCC(O)COc1cccc2ccccc12.Cl` (stereo unspecified), the cytotoxicity call is reported as “active”. For `C[C@H]1CN([C@@H](C)CO)C(=O)c2cc(-c3ccncc3)cnc2O[C@@H]1CN(C)S(=O)(=O)c1ccc(F)cc1`, the cytotoxicity call was “inactive”. With `COCCNC(=O)C[C@@H]1CC[C@H]2[C@@H](COc3ccc(NC(=O)Nc4cccc(F)c4)cc3C(=O)N2C)O1` the cytotoxicity call was “inactive”. In the case of `CCC(=O)NCc1nc(C)cc(N(C)C)n1`, the cytotoxicity call is reported as “inactive”. With `CCc1cn([C@H]2C[C@H](O)[C@@H](CO)O2)c(=O)[nH]c1=O` the cytotoxicity call was “inactive”. `C[C@H]1CN([C@@H](C)CO)C(=O)Cc2cc(NS(C)(=O)=O)ccc2O[C@@H]1CN(C)S(=O)(=O)c1cccs1` was tested, and the cytotoxicity call was “inactive”. With `COc1ccc(S(=O)(=O)Nc2ccc3c(c2)C(=O)N([C@@H](C)CO)C[C@H](C)[C@@H](CN(C)Cc2ccc(Cl)c(Cl)c2)OCCCC[C@@H](C)O3)cc1` the cytotoxicity call was “active”. For `COc1ccc(NC(=O)N(C)C[C@@H]2OCCCC[C@@H](C)Oc3ccc(NC(=O)Cc4ccccc4)cc3C(=O)N([C@@H](C)CO)C[C@H]2C)cc1`, the cytotoxicity call was “inactive”.

Source: the antibiotic and cytotoxicity screens of Wong et al. (2023)
